In all, about 340,000 compounds went through this assay and about 20 (0.006%) were called active. This list was built around the results that the source calls inconclusive (neither active nor inactive); the mix of calls is not that of the screen. Calls follow the shape of the dose curve; as a rule, active = well fitted inhibition curve with a large enough effect; inconclusive = small, poorly fitted or top-dose-only effect; inactive = no such curve, though single readings can be large or run the other way. A potency beside an inconclusive call is a rough fit, not a confirmed value.
Target: Sphingomyelin phosphodiesterase (Homo sapiens) (UniProt P17405)
Sequence of UniProt P17405 (P17405 whole entry, looked up): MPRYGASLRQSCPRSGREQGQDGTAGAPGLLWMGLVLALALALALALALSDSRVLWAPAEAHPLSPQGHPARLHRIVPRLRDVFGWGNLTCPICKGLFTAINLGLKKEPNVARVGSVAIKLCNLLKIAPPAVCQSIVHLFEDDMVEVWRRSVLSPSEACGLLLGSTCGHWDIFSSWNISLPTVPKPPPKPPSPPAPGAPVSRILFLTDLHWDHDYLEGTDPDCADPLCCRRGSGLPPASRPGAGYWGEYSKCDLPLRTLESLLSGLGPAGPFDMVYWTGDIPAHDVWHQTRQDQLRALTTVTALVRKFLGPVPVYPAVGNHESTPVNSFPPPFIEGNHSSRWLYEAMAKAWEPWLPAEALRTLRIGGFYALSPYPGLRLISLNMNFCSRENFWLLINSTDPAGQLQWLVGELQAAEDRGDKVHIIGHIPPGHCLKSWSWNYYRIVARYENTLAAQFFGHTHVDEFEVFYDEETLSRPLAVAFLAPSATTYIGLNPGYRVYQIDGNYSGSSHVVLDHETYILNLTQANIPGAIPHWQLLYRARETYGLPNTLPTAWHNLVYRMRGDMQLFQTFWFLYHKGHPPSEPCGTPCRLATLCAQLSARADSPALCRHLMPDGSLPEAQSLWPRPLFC
Test: Inhibitors of Secretory Acid Sphingomyelinase (S-ASM): qHTS
Settings: placental ASM, HMU-PC fluorogenic substrate (series up to 57.5 µM), 60 min; activity change, negative = inhibition: at the top concentration
Source text: Atherosclerosis is the underlying process for cardiovascular disease and thus is a major contributor to disease burden in the population. […] Thus, selective small molecule inhibitors of S-ASM should block LDL modification and reduce aortic LDL retention and may serve as new agents for the treatment of atherosclerosis. In a collaboration between National Heart, Lung, and Blood Institute and the NCGC a high-throughput amenable screen was developed to identify potent and selective small molecule inhibitors of S-ASM. This enzymatic, fluorescent screen uses an ASM enzyme preparation derived from human placenta and was tested against the NIH Molecular Libraries Small Molecule Repository (MLSMR). NIH Chemical Genomics Center [NCGC] NIH Molecular Libraries Probe Centers Network [MLPCN] MLPCN Grant: MH093173-01 Assay Submitter (PI): Alan Remaley, National Heart, Lung, and Blood Institute and Wei Zhen, NIH Chemical Genomics Center
Two microliters of ASM enzyme (1:150 dilution from stock) are dispensed in 1536-well plate. 23 nL of compound and control are pinned into assay plate using the Kalypsys pintool. The plates are then incubated for 10 minutes at ambient room temperature. Then, 2 uL of the flurogenic substrate, HMU-PC0, (9 uM final) are added to the plate. An incubation for 60 minutes takes place at 37 masculineC. After that, 4 uL of stop solution is added to raise the pH to 10 to end the kinetic reaction. Plate is read on ViewLux, with detection set at Ex = 386 (10) nm and Em = 447 (10) nm.
Potency is read from the fitted curve at half-maximal effect; tags tell the direction and shape of the fitted curve.

Row | Structure (SMILES) | Potency | activity change, negative = inhibition
1 | NCCNc1cc(N2CCCC2)ccc1[N+](=O)[O-] | inconclusive: 89.1 µM [inhibitor, single point] | 
2 | S=C(NCc1ccc2[nH]c3c(c2c1)CCCC3)Nc1ccccc1Cl |  | inactive: -13.2%
3 | COC(=O)C1=C(C)NC(=O)/C1=C\c1cc(C)n(-c2c(C)cccc2C)c1C | inconclusive: 100 µM [inhibitor, partial curve, poor fit] | 
4 | COc1ccc(Nc2nc(-c3cccc([N+](=O)[O-])c3)nc3ccccc23)c(OC)c1 |  | inactive: -1.61%
5 | CCCCC(=O)Nc1ccc(C2C(=O)c3ccccc3C2=O)cc1 |  | inactive: 3.47%
6 | OCC(Cc1ccccc1)NCc1ccccc1C(F)(F)F (centres undefined) |  | inactive: 5.6%
7 | COc1cccc(CN(C)C(=O)c2cc(COc3ccc4ncccc4c3)on2)c1 |  | inactive: -10.4%
8 | CCOc1ccc(NS(=O)(=O)c2ccc(-c3cnc(C4CC4)o3)cc2)cc1 | inconclusive: 126 µM [inhibitor, partial curve, poor fit] | 
9 | CCCOc1ccc(C2Nc3cccc4cccc(c34)N2)cc1 | inconclusive: 562 µM [inhibitor, partial curve, poor fit] | 
10 | Cc1ccc(Nc2nc(N)c([N+](=O)[O-])c(NCc3ccco3)n2)cc1C | inconclusive: 112 µM [inhibitor, partial curve] | 
11 | CCCCCCCCCCCCCCCC[n+]1ccc(C(N)=O)cc1 | inconclusive: 63.1 µM [inhibitor, single point] | 
12 | CCOc1cc(/C=C2/C(=N)N3C(=NC2=O)SN=C3S(=O)(=O)C(C)C)ccc1OC(=O)c1ccco1 | inconclusive: 25.1 µM [inhibitor, partial curve, poor fit] | 
13 | CCn1c(SCc2ccc(C(=O)Nc3nccs3)cc2)nnc1-c1ccc(N)cc1 | inconclusive: 44.7 µM [inhibitor, partial curve] | 
14 | CC(C)C(=O)Nc1ccc(Oc2ccc3c(c2)C(=O)NC3=O)cc1 |  | inactive: -1%
15 | Cn1cccc1/C=C1\CCC/C(=C\c2cccn2C)C1=O | inconclusive: 100 µM [inhibitor, single point] | 
16 | Cc1nnc(SCC(=O)N2c3ccccc3C(C)(c3ccccc3)CC2(C)C)s1 (centres undefined) | inconclusive: 447 µM [inhibitor, partial curve, poor fit] | 
17 | CCN(CC)Cc1c(C(=O)N/N=C/c2cccc(OCc3cccc(Cl)c3)c2)nnn1-c1nonc1N | inconclusive: 112 µM [inhibitor, partial curve, poor fit] | 
18 | Cn1nc(C(=O)Nc2cc(Cl)ccc2N2CCCC2)c2ccccc2c1=O |  | inactive: -14.5%
19 | C=CCn1c(=O)c(C(=O)Nc2cccnc2)c(O)c2ccccc21 |  | inactive: -1.07%
20 | COc1ccc(NC(=O)CSc2ccc3ccccc3c2)cc1S(=O)(=O)N1CCCCC1 | inconclusive: 251 µM [inhibitor, partial curve, poor fit] | 
21 | COC(=O)C1=C(C)NC(=O)/C1=C\c1cc(C)n(-c2cccc(C)c2)c1C | inconclusive: 112 µM [inhibitor, partial curve, poor fit] | 
22 | O=c1[nH]c2ccc(Cl)cc2c(-c2ccccc2)c1SC(=S)N1CCCCC1 | inconclusive: 126 µM [inhibitor, partial curve] | 

Row | Structure (SMILES) | Potency | activity change, negative = inhibition
23 | COCCNC(=O)/C(C#N)=C/C=C/c1ccccc1 |  | inactive: 2.49%
24 | COc1cccc(-c2c(C(=O)N/N=C/c3sccc3C)nnn2-c2nonc2N)c1 | inconclusive: 708 µM [inhibitor, partial curve, poor fit] | 
25 | CN(C)CCCN(C(=O)c1ccc(S(=O)(=O)N2CCc3ccccc32)cc1)c1nc2ccc(Cl)cc2s1 | inconclusive: 63.1 µM [inhibitor, single point] | 
26 | C[C@H](NC(=O)c1[nH]cnc1C(=O)Nc1ccc(Cl)cc1)c1ccccc1 | inconclusive: 224 µM [inhibitor, partial curve, poor fit] | 
27 | COc1cc(CC(=O)Nc2ccc3nc(SC)sc3c2)cc(OC)c1OC |  | inactive: -6.86%
28 | O=C(O/N=C\c1ccc(N2CCOCC2)c([N+](=O)[O-])c1)c1ccc(F)cc1 | inconclusive: 100 µM [inhibitor, partial curve, poor fit] | 
29 | CCc1c(C)nc2cc(-c3cc(OC)cc(OC)c3)nn2c1N1CCCC1 | inconclusive: 70.8 µM [inhibitor, partial curve, poor fit] | 
30 | CCOC(=O)c1cc([N+](=O)[O-])sc1NC(=O)CC |  | inactive: -9.15%
31 | CCc1ccc(C2c3[nH]c4ccccc4c3CCN2C(=O)c2cc(C)nn2C)cc1 (centres undefined) | inconclusive: 70.8 µM [inhibitor, single point] | 
32 | COc1ccc(N2CCN(Cc3nc4c(c(=O)[nH]c(=O)n4C)n3Cc3cccc(Cl)c3)CC2)cc1 | inconclusive: 79.4 µM [inhibitor, partial curve] | 
33 | Cc1ccc(C)n1Cc1ccc(C(=O)O)cc1 | inconclusive: 79.4 µM [inhibitor, partial curve] | 
34 | O=C(CN1C(=O)/C(=C2/SC(=S)N(CCS(=O)(=O)O)C2=O)c2ccccc21)Nc1cccc(Br)c1 | inconclusive: 100 µM [inhibitor, partial curve, poor fit] | 
35 | Cc1ccccc1C(=O)N1CCN(c2ccc([N+](=O)[O-])c(N3CCOCC3)c2)CC1 | inconclusive: 178 µM [inhibitor, partial curve, poor fit] | 
36 | O=C(CNC(=O)c1ccco1)Nc1cc(Cl)ccc1N1CCOCC1 |  | inactive: -1.27%
37 | COc1ccc(NC(=O)C(NS(=O)(=O)c2cccs2)C(C)C)cc1Cl (centres undefined) | inconclusive: 100 µM [inhibitor, partial curve, poor fit] | 
38 | Cc1ccc(NC(=O)C(C)OC(=O)COc2cccc(C(F)(F)F)c2)cc1S(=O)(=O)N1CCOCC1 (centres undefined) | inconclusive: 355 µM [inhibitor, partial curve, poor fit] | 
39 | CCCNC(=O)NC(=O)CN1C(=O)NC(C)(c2ccc3ccccc3c2)C1=O (centres undefined) |  | inactive: -1.05%
40 | Oc1ccc(C[C@H]2CNC(=S)N2CC2CCCN2C[C@H](Cc2ccccc2)N2C[C@H](Cc3ccc(O)cc3)N(CCc3ccccc3)C2=S)cc1 (some centres undefined) | inconclusive: 79.4 µM [inhibitor, partial curve] | 
41 | COc1ccc2c(CC(=O)OCC(=O)N3CCc4ccccc43)coc2c1 | inconclusive: 141 µM [inhibitor, partial curve] | 
42 | COc1ccc(OCCNc2cc(N3CCCCC3)ccc2[N+](=O)[O-])cc1 |  | inactive: -23%
43 | COc1ccc(-c2nc(-c3ccccc3)c(-c3cc([N+](=O)[O-])ccc3C)[nH]2)cc1O | inconclusive: 79.4 µM [inhibitor, partial curve, poor fit] | 
44 | CCCCCCCCCCS(=O)(=O)N/N=C/c1ccc(O)cc1 | inconclusive: 63.1 µM [inhibitor, single point] | 

Row | Structure (SMILES) | Potency | activity change, negative = inhibition
45 | Cc1cc(C(=O)CSc2nc3ccc(Cl)cc3[nH]2)c(C)n1CC1CCCO1 (centres undefined) | inconclusive: 89.1 µM [inhibitor, single point] | 
46 | COc1c2c(cc(O)c1C(C)=O)OC(C)(C)C=C2 |  | inactive: 2.43%
47 | Cc1cc(NS(=O)(=O)c2ccc(NC(=S)NC(=O)c3ccc(Br)cc3)cc2)no1 | inconclusive: 447 µM [inhibitor, partial curve, poor fit] | 
48 | CCOCc1c(C(=O)Nc2cc(OCC)c(N3CCOCC3)cc2OCC)oc2ccccc12 |  | inactive: -3.36%
49 | O=C(Cn1cnc([N+](=O)[O-])c1)Nc1cc(Oc2ccc(Cl)cc2Cl)cc([N+](=O)[O-])c1 | inconclusive: 89.1 µM [inhibitor, partial curve] | 
50 | CCNC(=O)CC1SC(=Nc2ccc(Cl)cc2)N(CC)C1=O (centres undefined) |  | inactive: -1.06%
51 | CCCCN=C1NN=C(c2ccc(C)c(C)c2)CS1 |  | inactive: -0.464%
52 | Cc1nn(-c2cc(N3CCCCC3)ccc2[N+](=O)[O-])c(=O)c2ccccc12 | inconclusive: 112 µM [inhibitor, partial curve, poor fit] | 
53 | O=C1/C(=C\c2ccc(O)cc2)SC(=S)N1Cc1ccccc1 | inconclusive: 89.1 µM [inhibitor, single point] | 
54 | COc1ccc(NC(=S)NC(=O)/C=C/c2ccco2)c(OC)c1 |  | inactive: -8.25%
55 | Cn1c(=O)c(Nc2ccc(Cl)cc2)c2c3c(cccc31)C(=O)c1ccccc1-2 | inconclusive: 70.8 µM [inhibitor, partial curve, poor fit] | 
56 | COc1ccccc1C(=O)COC(=O)Cn1[nH]c(=O)c2ccccc2c1=O |  | inactive: 0.57%
57 | Clc1ccc(CSc2nnc(Cn3cnc4ccccc43)o2)cc1 | inconclusive: 126 µM [inhibitor, partial curve, poor fit] | 
58 | CCc1ccc(CNC(=O)c2cc3c(C)nc4ccccc4c3o2)cc1 | inconclusive: 89.1 µM [inhibitor, single point] | 
59 | CC1=NN(c2ccccc2)C(=O)C1N=Nc1ccc(N)cc1 (centres undefined) |  | inactive: -6.85%
60 | CN1CCN(CC(=O)N2CCn3c4c(c5cc(C6CCCCC6)ccc53)CCCC42)CC1 (centres undefined) | inconclusive: 89.1 µM [inhibitor, single point] | 
61 | CN(CC(=O)Nc1ccc(Cl)c(C(F)(F)F)c1)C(=O)/C=C/c1cccs1 | inconclusive: 251 µM [inhibitor, partial curve, poor fit] | 
62 | O=C(CCC1N=C2c3ccccc3N=C(SCc3cccc(Cl)c3)N2C1=O)NCc1ccco1 (centres undefined) | inconclusive: 100 µM [inhibitor, single point] | 
63 | O=C(COC(=O)c1ccc(C(F)(F)F)cc1)Nc1cccc(S(=O)(=O)N2CCCCC2)c1 | inconclusive: 141 µM [inhibitor, partial curve, poor fit] | 
64 | CCCn1c(C)nc2cc(Cl)c(N3CCN(c4nc(-c5ccc(C)cc5)cs4)CC3)cc21 | inconclusive: 100 µM [inhibitor, partial curve, poor fit] | 
